From PMC2605266 (2008)

Molecular target: T1, Munc18c, N-terminal His6-fusion protein (Mus musculus (Mouse), UniProt Q60770)
T1 chain: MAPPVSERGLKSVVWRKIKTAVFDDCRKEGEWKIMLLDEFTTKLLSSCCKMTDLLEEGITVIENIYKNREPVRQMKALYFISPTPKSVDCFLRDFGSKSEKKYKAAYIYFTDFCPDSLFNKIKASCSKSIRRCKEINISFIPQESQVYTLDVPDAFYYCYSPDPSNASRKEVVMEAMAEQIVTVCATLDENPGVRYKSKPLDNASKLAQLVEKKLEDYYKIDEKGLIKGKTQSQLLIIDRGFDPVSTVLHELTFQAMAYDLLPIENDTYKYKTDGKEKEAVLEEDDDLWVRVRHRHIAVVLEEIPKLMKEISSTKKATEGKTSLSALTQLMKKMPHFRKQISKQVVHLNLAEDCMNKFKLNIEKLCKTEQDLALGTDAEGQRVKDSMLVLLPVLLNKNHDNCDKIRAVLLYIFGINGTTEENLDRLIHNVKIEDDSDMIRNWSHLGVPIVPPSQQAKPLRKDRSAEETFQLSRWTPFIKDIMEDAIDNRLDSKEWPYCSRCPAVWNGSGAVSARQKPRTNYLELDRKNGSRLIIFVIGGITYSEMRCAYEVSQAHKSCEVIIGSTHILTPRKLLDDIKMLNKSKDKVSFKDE
Assay: Ni-NTA pull-down, immunoblot; without syntaxin 4; excess Sx4 cytosolic domain (16.7 uM) displaces VAMP2 from Munc18c, Sx16 does not

B1: VAMP2 cytosolic domain ([…]), untagged (protein)
chain: not shown
B1: binds.
